Source: publication PMC2872910 (The Journal of Cell Biology, 2010)

Target: the molecule itself
Assay: SEC + other: velocity sedimentation in sucrose gradients

B1: She2 (L130Y)-1/2TAP (natural protein)
chain: not shown
stoichiometry N: ~2
